Laboratory results from PMC4336329 (PLoS ONE, 2015).
Out of some 310,000 compounds screened, about 14,000 (4.5%) showed an effect of 50% or more. Effects have a minus sign here. This is one part of the list.

Target: human ether-à-go-go-related gene (hERG) potassium channel (human, UniProt Q12809)
Assay: primary screen, population patch clamp on CHO cells stably expressing hERG
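Note: peak tail current of the secondary pulse compared with the same well before compound.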

Sequence of human ether-à-go-go-related gene (hERG) potassium channel (Q12809 whole entry, looked up): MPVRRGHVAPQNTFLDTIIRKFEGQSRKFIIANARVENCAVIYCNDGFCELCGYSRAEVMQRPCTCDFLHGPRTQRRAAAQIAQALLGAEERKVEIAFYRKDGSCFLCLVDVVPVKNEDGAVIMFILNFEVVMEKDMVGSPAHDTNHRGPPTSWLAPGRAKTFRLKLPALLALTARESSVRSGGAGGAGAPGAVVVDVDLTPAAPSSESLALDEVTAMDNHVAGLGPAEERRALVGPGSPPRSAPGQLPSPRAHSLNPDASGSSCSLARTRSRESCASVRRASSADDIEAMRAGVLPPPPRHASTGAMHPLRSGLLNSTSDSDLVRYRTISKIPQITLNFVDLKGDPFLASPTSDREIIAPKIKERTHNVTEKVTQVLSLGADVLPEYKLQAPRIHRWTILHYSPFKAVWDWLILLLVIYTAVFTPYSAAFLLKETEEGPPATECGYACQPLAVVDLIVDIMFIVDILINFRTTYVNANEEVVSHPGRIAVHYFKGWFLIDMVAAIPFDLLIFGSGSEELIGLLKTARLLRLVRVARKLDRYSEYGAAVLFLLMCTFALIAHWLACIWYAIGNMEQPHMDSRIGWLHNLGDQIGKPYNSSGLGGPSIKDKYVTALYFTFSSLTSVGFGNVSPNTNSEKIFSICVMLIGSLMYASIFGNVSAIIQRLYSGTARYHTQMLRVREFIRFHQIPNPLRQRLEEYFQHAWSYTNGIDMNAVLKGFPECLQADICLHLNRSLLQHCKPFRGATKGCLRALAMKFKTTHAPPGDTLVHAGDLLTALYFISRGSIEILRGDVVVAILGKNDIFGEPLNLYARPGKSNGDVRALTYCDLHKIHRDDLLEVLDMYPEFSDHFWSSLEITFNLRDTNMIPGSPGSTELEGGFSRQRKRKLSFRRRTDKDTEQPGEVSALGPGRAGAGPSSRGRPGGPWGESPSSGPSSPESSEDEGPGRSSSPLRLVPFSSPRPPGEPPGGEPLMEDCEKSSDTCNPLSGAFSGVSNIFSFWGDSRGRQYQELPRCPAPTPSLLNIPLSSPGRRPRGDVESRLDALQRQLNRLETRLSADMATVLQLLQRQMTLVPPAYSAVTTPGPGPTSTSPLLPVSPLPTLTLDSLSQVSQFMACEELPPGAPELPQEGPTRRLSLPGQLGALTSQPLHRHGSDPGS

SMILES | hERG current change (%, negative = inhibition) at 10uM
Cc1ccc(NC(=O)COC(=O)c2ccc(-n3cccn3)cc2)cc1C | 3.48%
O=C(COC(=O)c1ccccc1OCc1ccccc1Cl)NC1CC1 | -1.71%
COC1(OC)N=C(N)C2(C#N)C(c3ccccc3)NC(C)=CC12C#N (centres unmarked) | 2.16%
O=C(c1cnn(C(=O)COc2ccc(Cl)cc2)c1)c1ccccc1O | -2.03%
CCOC(=O)CNC(=O)CSc1nnc(-c2ccncc2)n1-c1ccc(Cl)cc1 | -8.18%
COCCNC(=O)CN(c1ccc(F)cc1)S(=O)(=O)c1ccc2c(c1)OCCO2 | 6.36%
CCOC(=O)C1CCN(C(=O)CCc2c(C)nc3c(-c4ccc(F)cc4)c(C)nn3c2C)CC1 | -71.1%
Cc1cc(C)cc(NC(=S)N2CCC(c3nc4ccccc4s3)CC2)c1 | 4.27%
O=C(NCCN1CCCCC1)/C(=C/c1ccco1)NC(=O)c1ccccc1 | -40.6%
Nc1ccc(N2CCN(C(=O)c3cccs3)CC2)cc1 | -0.0153%
Cl.NNC(N)=O | -0.971%
O=C(CSCc1ccccc1)Nc1cc([N+](=O)[O-])ccc1F | 6.82%
O=C(COC(=O)c1cc(=O)[nH]c(=O)[nH]1)Nc1cccc(S(=O)(=O)N2CCOCC2)c1 | 8.94%
CSc1cccc(CN2CCCC(C(=O)Nc3cccc(-n4cccn4)c3)C2)c1 (centres unmarked) | -28.6%
O=C(Nc1ccccc1)N1CCCN(c2ccc(C(F)(F)F)cn2)CC1 | -33.6%
CCOC(=O)c1c(C)[nH]c(C)c1S(=O)(=O)Nc1ccc(CN2CCCCC2)cc1 | 12.4%
CCN(CC)CCNC(=O)Cn1nc(Cc2ccncc2)c2ccccc2c1=O | 0.05%
Cc1ccccc1SCC(=O)OCC(=O)N(C)c1c(N)n(Cc2ccccc2)c(=O)[nH]c1=O | 2.2%
COc1ccccc1OCC(=O)N1CCN(C(=O)COc2ccccc2OC)CC1 | -1.94%
COCC(=O)N(Cc1ccccc1)c1ccccn1 | 6.35%
O=C(CN1C(=O)NC2(CCCCCC2)C1=O)N1CCN(c2ccccc2)CC1 | -2.9%
COc1ccc(CCCC(=O)N/N=C/c2ccc(C)cc2)cc1 | 19%

SMILES | hERG current change (%, negative = inhibition) at 10uM
Cc1ccc(-n2c(SCC(=O)N/N=C/c3ccc(C)s3)nnc2-c2ccccc2)cc1 | -31.6%
CCOC(=O)[C@H](CCc1ccccc1)N[C@@H](C)C(=O)N1CCC[C@H]1C(=O)O.O=C(O)/C=C\C(=O)O | 23.4%
O=C(Cn1cnc2c(oc3ccccc32)c1=O)N1CCCC1 | 12.7%
CC1CC1C(=O)OCC(=O)NCc1ccc(Cl)cc1 (centres unmarked) | -2.61%
Cc1ccccc1/C=C/c1cc[n+](C)cc1.[I-] | 24.8%
O=C(NC1CCCC1)C1C2C=CC(C2)C1C(=O)N1CCOCC1 (centres unmarked) | 15.8%
COC(=O)c1ccc(NC(=O)NS(=O)(=O)c2ccc(C)cc2)cc1 | -3.1%
O=C(NNC(=O)c1ccccc1Br)c1ccc(SCC2CCCO2)c([N+](=O)[O-])c1 (centres unmarked) | 1.07%
COc1ccc2c(c1)C(=O)CC(c1ccccc1F)O2 (centres unmarked) | -15.1%
Cc1cc(N2CCCCC2)n2ncc(-c3ccccc3)c2n1 | -2.06%
Cc1ccc(-c2nnc(SCC(=O)CC(=O)Nc3ccccc3)n2-c2ccccc2)cc1 | -7.7%
CCOC(=O)C1CCCN(C(=O)c2sc3nc(-c4ccc(F)cc4)cn3c2C)C1 (centres unmarked) | -72.9%
COc1ccccc1N1CCN(Cc2cc(=O)c(OCC(=O)NC3CCCC3)co2)CC1 | -22.5%
CCOC(=O)N1CCN(C(=O)CN(C2CCCCC2)S(=O)(=O)c2c(C)cc(C)cc2C)CC1 | -14.6%
N/C(Cc1ccc(Cl)cc1Cl)=N\OC(=O)Cc1cccs1 | -1.08%
Cc1csc(=Nc2c(C)n(C)n(-c3ccccc3)c2=O)n1Cc1ccccc1 | -29%
CCC(=O)c1c(NC)cc(C)oc1=O | -32%
COc1ccccc1C(=O)NNC(=O)c1ccccc1 | 11%
CCCCc1nc2cc(C(=O)N(C)C3CCOCC3)ccc2o1 | 4.32%
COc1ccc(CCNC(=O)c2ccccc2OCc2c(C)noc2C)cc1 | -26.4%
CN(Cc1ccccc1)c1ccc(S(=O)(=O)N2CCOCC2)cn1 | -5.27%
O=C(CCc1ccccc1)NC(=S)NCc1ccco1 | 1.43%
